# According to PubChem BioAssay AID686978 (National Center for Advancing Translational Sciences (NCATS), 2013):
# Out of some 420,000 compounds screened, about 64,000 (15%) were called active. The shares of active, inactive and inconclusive entries below differ from those in the screen. Calls come from the whole dose curve; as a rule, active = well fitted inhibition curve with a large enough effect; inconclusive = small, poorly fitted or top-dose-only effect; inactive = flat fitted curve, though single readings scatter. Potencies of inconclusive entries are left out as doubtful fits.
# Assay: qHTS for Inhibitors of human tyrosyl-DNA phosphodiesterase 1 (TDP1): qHTS in cells in absence of CPT; note: nearly all actives have a fitted effect of over 55% in size
# Conditions: DT40 Tdp1-/- hTDP1 cells, no CPT, ATP luminescence, 48 h; series mostly up to 46.2 µM
# Procedure, shortened: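 Readout: luminescence from CellTiter-Glo after 30 min in the dark at RT. Cells: DT40 Tdp1-/- with stable hTDP1, 400/well. Exposure: compounds alone, ≥48 hr, 37 °C.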
# Potency is the fitted concentration of half-maximal effect; tags give direction and shape of the fitted curve.
row,Structure (SMILES),Potency
1,CN(C)S(=O)(=O)Nc1ccc(-c2cn3ccsc3n2)cc1,inactive
2,COc1ccc(NC(=O)c2cc(-c3cc(Cl)ccc3C)n[nH]2)cn1,"inconclusive [inhibitor, single point]"
3,O=C(NC1CC2CCCC(C1)N2C(=O)Nc1ccc(Cl)c(C(F)(F)F)c1)C1CC1 (stereo not given),active: 16.4 µM
4,COCCCNc1ccn2nc(-c3ccc(Cl)cc3)cc2n1,"inconclusive [inhibitor, single point]"
5,CC1CCN(c2oc(-c3ccccc3F)nc2C#N)CC1,"inconclusive [inhibitor, single point]"
6,O=c1c2ccccc2nc(SCc2cccc(F)c2)n1C1CCCC1,"inconclusive [inhibitor, single point]"
7,COc1ccc(-c2nn3c(-c4cccc(C)c4)nnc3s2)cc1OC,"inconclusive [inhibitor, single point]"
8,CCOC(=O)c1cc(-c2ccc(/C=N\n3cnnc3)o2)ccc1Cl,"inconclusive [inhibitor, partial curve]"
9,COC(=O)c1ccccc1NC(=O)c1nc(S(=O)(=O)Cc2ccccc2F)ncc1Cl,"inconclusive [inhibitor, full curve, poor fit]"
10,N#Cc1ccc(NC(=S)NC(=O)C2CC2)cc1,"inconclusive [inhibitor, partial curve]"
11,OC(c1ccc(CN2CCCCC2)cc1)c1ncc(-c2ccccc2)[nH]1 (stereo not given),inactive
12,Cc1ccc2c(c1)C1CN(C)CCC1N2S(=O)(=O)c1ccc(C(C)C)cc1 (stereo not given),"inconclusive [inhibitor, single point]"
13,O=C(CCCCn1c(=O)c2ccccc2n(Cc2ccc(F)cc2Cl)c1=O)NCc1ccco1,active: 14.6 µM
14,CCOc1ccc(N(CC(=O)NC(C)(C)C)C(=O)CCC(=O)Nc2nccs2)cc1,inactive
15,CCOC1(OCC)C(c2ccc(N)cc2)C(C#N)(C#N)C1(OCC)OCC (stereo not given),inactive
16,Cn1nc(-c2ccc(Cl)cc2)c2cc(C(=O)N3CCN(c4ccccc4)CC3)sc21,"inconclusive [inhibitor, single point]"
17,CC(=O)Nc1ccc(N2CCOCC2)c(S(=O)(=O)Nc2ccccc2Cl)c1,inactive
18,Cc1ccccc1-c1c(C)oc2cc(O)ccc2c1=O,inactive
19,CCOc1cc(/C=C2\C(=O)ON=C2c2ccccc2)cc(Br)c1O,"inconclusive [inhibitor, single point]"
20,COc1ccc(-c2csc3ncnc(Oc4cccc5ccc(C)nc45)c23)cc1,"inconclusive [inhibitor, single point]"
21,O=C(NCc1nnnn1-c1ccc(F)c(F)c1)c1ccc2c(c1)OCO2,inactive
22,COc1cccc(C(=O)NC(C)C(c2cccs2)N2CCOCC2)c1 (stereo not given),"inconclusive [inhibitor, single point]"
23,Cc1ccc(/C=C/C(=O)N2CCN(S(=O)(=O)c3cccs3)CC2)o1,inactive

row,Structure (SMILES),Potency
1,Cc1cccc(Nc2nc(N3CCOCC3)nc(N3CCOCC3)n2)c1,"inconclusive [inhibitor, single point]"
2,CC(NC(=O)c1ccc2nc(CCc3ccccc3)oc2c1)c1ccccc1 (stereo not given),"inconclusive [inhibitor, single point]"
3,CC(C)(C)C(=O)NC1CC2CCCC(C1)N2C(=O)Nc1cccc(Cl)c1 (stereo not given),inactive
4,COc1ccc(NC(=O)CN2CCN(CC(=O)Nc3ccccc3Cl)CC2)c(OC)c1,active: 18.4 µM
5,O=C(CCS(=O)(=O)c1ccc(Br)cc1)N1CCN(c2ccccc2F)CC1,"inconclusive [inhibitor, partial curve]"
6,CC(C)Oc1ccc(CNC(=O)c2ccc3nc(SCc4ccc(F)cc4)n(C)c3c2)cc1,"inconclusive [inhibitor, single point]"
7,COc1ccc(/C=N/NC(=O)c2cccc([N+](=O)[O-])c2)cc1OS(=O)(=O)c1ccccc1,active: 16.4 µM
8,COc1ccc([C@H]2CC(=O)C=C(c3cc(C)ccc3OC)C2)cc1,active: 6.51 µM
9,Cc1ccc(C(=O)Nc2ccc(-c3csc(C)n3)cc2)cc1,inactive
10,COc1cccc(-c2cnc(C(O)c3ccc(F)c(F)c3)[nH]2)c1 (stereo not given),"inconclusive [inhibitor, single point]"
11,OC[C@@H]1CN(Cc2ccccc2)C[C@H](n2cnc3c(NCc4ccc(F)cc4)ncnc32)O1,"inconclusive [inhibitor, single point]"
12,CCN1CCCC1CNCc1ccc(Cl)cc1Cl (stereo not given),inactive
13,Cc1[nH]nc(-c2ccc(OCc3cnn(-c4ccccc4)c3)c(C)c2O)c1Oc1ccccc1,"inconclusive [inhibitor, full curve]"
14,CC1CCC(NS(=O)(=O)c2ccc(N3CCCC3=O)cc2)CC1 (stereo not given),"inconclusive [inhibitor, partial curve]"
15,O=C(Nc1ccc(Cl)cc1)c1nc[nH]c1C(=O)N1CCN(c2ccccc2)CC1,inactive
16,Cc1cccc(/C=N/c2sc3c(c2C#N)CCN(Cc2ccccc2)C3)c1O,"inconclusive [inhibitor, partial curve]"
17,Cc1ccc(C)c(NC(=O)CCc2c(C)n(C)c3cc(-c4ccccc4C)nn3c2=O)c1,active: 14.6 µM
18,O=C(N/N=C/c1[nH]c2ccccc2c1Cl)c1cccc(Br)c1,"inconclusive [inhibitor, partial curve]"
19,O=C(NN=C1CCCC1)c1[nH]c2ccc(Br)cc2c1-c1ccccc1,"inconclusive [inhibitor, single point]"
20,C[C@]12c3[nH]c4cc(-c5ccco5)ccc4c3CCN1C(=O)[C@@H](CC(=O)NCc1cccc(C(F)(F)F)c1)C[C@@H]2C(=O)N1CCOCC1,"inconclusive [inhibitor, single point]"
21,COc1cccc(N2CCN(C(=O)c3ccc(CS(=O)c4cccc(Cl)c4)o3)CC2)c1 (stereo not given),active: 0.517 µM
22,COc1ccc(NC(=O)Cn2nc(C)c([N+](=O)[O-])c2C)cn1,inactive
